According to PubChem BioAssay AID651820 (National Center for Advancing Translational Sciences (NCATS), 2012):
The campaign covered roughly 340,000 compounds. About 12,000 (3.5%) were called active. Inconclusive means that the source gave no clear call. Such entries were picked first, then a sample of the others. Calls come from the whole dose curve; as a rule, active = well fitted inhibition curve with a large enough effect; inconclusive = small, poorly fitted or top-dose-only effect, or another doubt; inactive = no such curve, though single readings can be large or run the other way. Potencies of inconclusive entries are left out as doubtful fits.

Assay: qHTS Assay for Inhibitors of Hepatitis C Virus (HCV)
Conditions: Huh7.5.1 HCVcc-Cre (HCVcc is cell-culture hepatitis C virus) infection, luciferase reporter, 44 h; series mostly up to 41.8 µM
In short: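 After 44 h co-culture of compound, cells and HCVcc-Cre (~0.5 moi), substrate is added for 15 min at room temperature and luciferase measured over 15 sec. Cells were seeded at 1,000/well and pre-cultured 4 h.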
Potency is the fitted concentration of half-maximal effect; tags give direction and shape of the fitted curve.

Q: Which Potency does the source give for `COC(=O)c1ccccc1NC(=O)Cc1ccccc1OC` here?
A: The Potency was inconclusive [inhibitor, single point].

Q: With `Cc1cc(C)nc(SCC(=O)Nc2ncc(C(F)(F)F)cc2Cl)n1` as the compound, how does the Potency read?
A: Its Potency is “inactive”.

Q: With `Cc1ccc(NC(=O)c2oc3ccc(S(=O)(=O)N4CCC5(CC4)OCCO5)cc3c2C)cc1C` as the compound, how does the Potency read?
A: The Potency was inconclusive [inhibitor, partial curve].

Q: With `O=C(c1ccccc1)N1CC(COc2ccccc2)OC(c2cccnc2)O1` (centres undefined) as the compound, how does the Potency read?
A: The Potency was “inactive”.

Q: Which Potency does the source give for `CCC(=O)N1CCN(c2nc(CC)nc3sc4c(c23)CCCC4)CC1` here?
A: The Potency was inconclusive [inhibitor, single point].

Q: For `COc1ccc(CNC(=O)C[C@H]2C[C@H](C(=O)N3CCCCC3)[C@@]3(CCc4ccccc4)c4[nH]c5cc(-c6ccco6)ccc5c4CCN3C2=O)cc1OC`, which Potency is on record?
A: Its Potency is inconclusive [inhibitor, partial curve].

Q: With `Cc1cccc(C(=O)NNC(=O)C23CC4CC(CC(C4)C2)C3)c1O` as the compound, how does the Potency read?
A: The Potency was “inactive”.

Q: With `Cc1cc(C)cc(Nc2ncnc3nc[nH]c23)c1` as the compound, how does the Potency read?
A: The Potency was inconclusive [inhibitor, single point].

Q: With `Cc1cc(C)c(NC(=O)COC(=O)c2cccc3c2C(=O)c2ccccc2C3=O)c(C)c1` as the compound, how does the Potency read?
A: Its Potency is inconclusive [inhibitor, full curve].

Q: Which Potency does the source give for `O=C(Nc1cccc(S(=O)(=O)N2CCCCC2)c1)c1ccccc1NS(=O)(=O)c1ccc(F)cc1` here?
A: The Potency was inconclusive [inhibitor, single point].

Q: With `Cc1ccc(C(=O)c2coc3ccc(O)c(CN4CCN(C)CC4)c23)cc1` as the compound, how does the Potency read?
A: Its Potency is inconclusive [inhibitor, partial curve, poor fit].

Q: For `O=C(CCC1CCCN(C(=O)c2ccc3c(c2)OCO3)C1)NCc1ccc(F)c(F)c1` (centres undefined), which Potency is on record?
A: The Potency was inconclusive [inhibitor, single point].

Q: For `CC(C)=NNc1nc2c(c(=O)n(C)c(=O)n2C)n1CCc1ccccc1`, which Potency is on record?
A: The Potency was inconclusive [inhibitor, single point].

Q: Which Potency does the source give for `CCOC(=O)C1(N(CC)CC)Sc2cc(C)ccc2NC1=O` (centres undefined) here?
A: Its Potency is inconclusive [inhibitor, single point].

Q: With `Cc1ccc(-c2c3c(nc4sc(C(N)=O)c(N)c24)CCC3)cc1` as the compound, how does the Potency read?
A: Its Potency is inconclusive [inhibitor, partial curve].

Q: With `CC1(C)CN2C(=O)c3ccccc3C2(C)S1` (centres undefined) as the compound, how does the Potency read?
A: Its Potency is “inactive”.

Q: For `O=C(Nc1ccc(Nc2ccccc2)cc1)c1ccc(Cl)cc1[N+](=O)[O-]`, which Potency is on record?
A: The Potency was inconclusive [inhibitor, single point].

Q: With `COc1cc(/C=C(/C#N)c2ccc(F)cc2)ccc1OCc1ccc(C(=O)O)o1` as the compound, how does the Potency read?
A: Its Potency is “inactive”.

Q: With `c1ccc2sc(SCc3ccc(-c4nnco4)cc3)nc2c1` as the compound, how does the Potency read?
A: Its Potency is inconclusive [inhibitor, single point].

Q: For `Cc1cc(/C=C(\C#N)c2nc3ccccc3[nH]2)c(C)n1C`, which Potency is on record?
A: Its Potency is inconclusive [inhibitor, partial curve].

Q: With `Cc1cccc(S(=O)(=O)N2CN(Cc3ccco3)c3nc4ccccc4nc32)c1` as the compound, how does the Potency read?
A: Its Potency is “inactive”.

Q: For `Cc1ccc(C(C)NC(=O)c2ccco2)cc1` (centres undefined), which Potency is on record?
A: Its Potency is active: 6.31 µM.

Q: Which Potency does the source give for `Cc1nnc(N2CCC(C(=O)N3CCCCCC3)CC2)c2nn(-c3ccc(Cl)cc3)c(C)c12` here?
A: Its Potency is active: 8.91 µM.

Q: For `Cc1cccc(NC(=O)c2ccc(COc3ccc(Cl)cc3Cl)o2)n1`, which Potency is on record?
A: Its Potency is inconclusive [inhibitor, single point].

Q: With `O=C(Nc1nc(-c2ccccn2)cs1)C1COc2ccccc2O1` (centres undefined) as the compound, how does the Potency read?
A: Its Potency is active: 35.5 µM.

Q: With `O=C(Nc1ccc(Br)cc1)C1CC(c2c(F)cccc2Cl)=NO1` (centres undefined) as the compound, how does the Potency read?
A: The Potency was inconclusive [inhibitor, partial curve].

Q: Which Potency does the source give for `O=C(C1CCCN(S(=O)(=O)c2ccc(F)cc2)C1)N(Cc1cccs1)C1CC1` (centres undefined) here?
A: Its Potency is inconclusive [inhibitor, single point].

Q: For `CCOC(=O)c1cn(-c2ccccc2)nc1-c1ccncc1`, which Potency is on record?
A: Its Potency is active: 10 µM.

Q: With `O=C(CNC(=O)c1cccc(F)c1)NC1CC1` as the compound, how does the Potency read?
A: The Potency was inconclusive [inhibitor, partial curve, poor fit].

Q: For `COc1ccc(N2C(=O)c3ccc(C(=O)Nc4ccc(NC(C)=O)cc4)cc3C2=O)cc1`, which Potency is on record?
A: The Potency was “inactive”.

Q: For `COC(OC)c1ccnc(-c2ccc(OC(=O)c3ccccc3)cc2)n1`, which Potency is on record?
A: Its Potency is “inactive”.

Q: For `Cc1cccc(-c2cc3nc(-c4ccccc4)cc(=O)n3[nH]2)c1`, which Potency is on record?
A: Its Potency is “inactive”.

Q: Which Potency does the source give for `CCCCOC(=O)Nc1ccc2c(C)cc(=O)oc2c1` here?
A: The Potency was inconclusive [inhibitor, partial curve, poor fit].

Q: With `O=C(Nc1ccccc1)Nc1cccc(Cl)c1Cl` as the compound, how does the Potency read?
A: Its Potency is inconclusive [inhibitor, single point].

Q: With `CC1(C)CC(=O)C2=C(C1)N1C(=C(C#N)C2c2ccccc2Cl)N=C(N)c2ccccc21` (centres undefined) as the compound, how does the Potency read?
A: Its Potency is inconclusive [inhibitor, single point].

Q: For `Cc1cc(N2CCC(C(=O)Nc3ccc(F)cc3)CC2)nc(-c2ccccc2)n1`, which Potency is on record?
A: Its Potency is inconclusive [inhibitor, single point].

Q: Which Potency does the source give for `CCOC(=O)c1ccccc1NC(=O)COc1coc(CN2CCc3ccccc32)cc1=O` here?
A: The Potency was inconclusive [inhibitor, partial curve].

Q: Which Potency does the source give for `Cc1ccc(C(=O)Nc2ccc(F)c(S(=O)(=O)N3CCOCC3)c2)s1` here?
A: The Potency was inconclusive [inhibitor, single point].

Q: Which Potency does the source give for `CCCNc1nc(C)cc(-c2cc(-c3ccccc3)on2)n1` here?
A: The Potency was inconclusive [inhibitor, partial curve].

Q: For `CC1CC(C)C[N+](=C2C=C(N3CCCC3)CC(C)(C)C2)C1` (centres undefined), which Potency is on record?
A: Its Potency is active: 3.55 µM.

Q: With `CCOC(=O)c1cnc(-n2cc(C)cn2)nc1NCc1ccc2c(c1)OCO2` as the compound, how does the Potency read?
A: The Potency was inconclusive [inhibitor, partial curve].

Q: Which Potency does the source give for `CN(C(=O)Cn1cc(C(F)(F)F)ccc1=O)c1c(N)n(Cc2ccccc2)c(=O)[nH]c1=O` here?
A: The Potency was “inactive”.

Q: With `CN(c1ccccc1)c1ncccn1` as the compound, how does the Potency read?
A: The Potency was “inactive”.

Q: Which Potency does the source give for `COc1cc2ccccc2cc1C(=O)NC(=S)Nc1cccc(C(=O)O)c1C` here?
A: The Potency was inconclusive [inhibitor, full curve].
